Consider one molecule from article PMC7822861, “A functional family of fluorescent nucleotide analogues to investigate actin dynamics and energetics” (Nature Communications, 2021).

Assay [1] addresses T1, Rabbit muscle actin (rabbit, UniProt P68135). Briefly: fluorescence polarisation; steady-state fluorescence anisotropy of KU560 (excitation 555 nm, emission 650 nm); 0.5 µM KU560-profilin or 2 µM KU560-ADF/cofilin titrated with increasing concentrations of G-actin bound to ATP (control pre-incubated with ATP); G-buffer, room temperature. To be noted: both partners purified.

The target of assay [2] is T1, Rabbit muscle actin. Briefly: fluorescence polarisation; steady-state fluorescence anisotropy of KU560 (excitation 555 nm, emission 650 nm); 0.5 µM KU560-profilin or 2 µM KU560-ADF/cofilin titrated with increasing concentrations of G-actin pre-incubated 150 min with a 5-fold excess of ATP-ATTO-488 (88% occupancy); G-buffer, room temperature. To be noted: both partners purified.

B1: KU560-labeled S. cerevisiae ADF/cofilin (Cof1p) D34C (natural protein)
chain: not shown
modifications: KU560 rigid maleimide dye (the D34C construct was used for this labeling)
notes: also called KU560-ADF/cofilin; KU560-Cof1; source: E. coli Rosetta 2(DE3)pLysS, purified (Nickel-Sepharose, eluted by TEV cleavage); not shown: His6, N-terminal, cleaved
B1: the Kd with Rabbit muscle actin [1] worked out at 1700 ± 500 nM; with Rabbit muscle actin [2] it was 1600 ± 300 nM.
